# Measurements as given in PubChem BioAssay AID624173 (National Center for Advancing Translational Sciences (NCATS), 2012).
# Out of some 410,000 compounds screened, about 490 (0.12%) were called active. The inconclusive results got no clear call from the source; some entries with a clear call stand among them for comparison. The call rests on the fitted dose curve; in most records, active means well fitted inhibition curve with a large enough effect; inconclusive means small, poorly fitted or top-dose-only effect; inactive means flat fitted curve, though single readings scatter. Potencies of inconclusive entries are doubtful fits and often do not repeat.
# Target: pyruvate kinase (Trypanosoma brucei) (UniProt Q57TT1)
# Test: qHTS of Trypanosoma Brucei Inhibitors; further: nearly all actives have a fitted effect of over 50% in size
# Settings: TbPYK enzyme, Kinase-Glo Plus ATP luminescence, 45 min; series mostly up to 76.8 µM
# From the text: Members of the Trypanosomatidae family of parasitic protozoans cause a spectrum of diseases throughout the tropical and subtropical world. Sleeping sickness, caused by two subspecies of Trypanosoma brucei, is endemic to areas of sub-Saharan Africa, while Chagas' disease, a manifestation of Trypanosoma cruzi infection, is prevalent throughout Central and South America. In addition, many species of Leishmania are responsible for a range of cutaneous and visceral diseases, causing ulcers, destructive lesions and kalaazar, a lethal infection of the viscera. These diseases cause severe public health and economic burdens on populations that are often already caught in a tragic cycle of poverty, poor nutrition and disease. Collectively, parasites of the trypanosomatid family infect 30 million people worldwide (~500 million live in endemic areas), and account for ~130K deaths annually. Existing treatments have developed little in the past 50 years, and suffer from toxicity, poor efficacy and resistance; the goal of this project is to develop lead drugs that will be suitable for entry into pre-clinical trials.
# Glycolysis in axenically cultured T. cruzi, representing the intracellular pathogenic stage, is also essential for these parasites. {Engel, 1987} This project aims to discover and optimize selective inhibitors of the glycolytic enzyme pyruvate kinase (PYK) from Trypanosoma brucei, the parasite that causes sleeping sickness. […] Trypanosomatid PYKs show significant differences from their human counterparts including only 47-50% sequence identity and different allosteric and activation properties.{Callens, 1992} To this end, a qHTS was done against the MLSMR to discover inhibitors.
# NIH Molecular Libraries Probe Production Network [MLPCN]
# NIH Chemical Genomics Center [NCGC]
# PI Name: Malcolm Walkinshaw, University of Edinburgh
# 2 uL of TbPYK/substrate buffer (columns 1-3, 5-48) are dispensed into Greiner white solid bottom 1536-well assay plates; column 4 receives only TEA buffer as 0x TbPYK controls. Compounds are then transferred via Kalypsys pin tool equipped with 1536-pin array (10 nL slotted pins, V&P Scientific, San Diego, CA). Following addition of compound, 2 uL of ADP (130 uM final concentration, all columns) is added to initiate the reaction. The plates are then incubated at room temperature for 45 minutes. Kinase-Glo Plus reagent is added (3 uL) and plates incubated for 10 minutes, before being transferred to a ViewLux high-throughput CCD imager (PerkinElmer) wherein single end-point measurements of luminescence are acquired using a clear filter. All reagents are diluted in an assay buffer consisting of 50 mM TEA (pH 7.2), 100 mM KCl, 10 mM MgCl2, 0.05% BSA and 0.01% Tween-20.
# All screening operations will be performed on a fully integrated robotic system (Kalypsys, San Diego, CA) containing one RX-130 and two RX-90 anthropomorphic robotic arms (Staeubli, Duncan, SC). Library plates will be screened starting from the lowest and proceeding to the highest concentration. Vehicle-only plates, with DMSO being pin-transferred to columns 5-48, will be inserted uniformly at the beginning and the end of each library in order to monitor and record any shifts in the background, which can be affected by reagent dispensers or loss in enzyme activity over time. Screening data will be corrected, normalized, and concentration-effect relationships will be derived by using publicly-available curve fitting algorithms developed in-house (http://ncgc.nih.gov/pub/openhts).
# Potency means the concentration at half of the fitted maximal effect; tags describe the fitted curve by direction and shape.
row,SMILES,Potency
1,CC(C)Cc1nn2c(=O)cc(COC(=O)c3ccc(NC(=O)C4CCCCC4)cc3)nc2s1,inactive
2,COC(=O)c1cccc(NC(=O)c2cccnc2)c1,inactive
3,CC(=O)N(C(C)=O)c1ncc2c([nH]c3ccccc32)c1C#N,"inconclusive: 56.2 µM [inhibitor, single point]"
4,COC(=O)c1ccc(NC(=O)CN(C)S(=O)(=O)c2ccc(Br)s2)cc1,inactive
5,CC(C)C1CC(O)(C2(O)CCCCC2)ON1 (centres undefined),"inconclusive: 39.8 µM [inhibitor, single point]"
6,COc1ccc(OC)c(-c2noc(N3CCN(c4ccc(Cl)cc4)CC3)n2)c1,inactive
7,Fc1ccc(-c2ccnc3nc(-n4cccc4)nn23)cc1,"inconclusive: 28.2 µM [inhibitor, single point]"
8,COCCCn1c(SCC(=O)N(C)C)nnc1-c1ccccc1,"inconclusive: 44.7 µM [inhibitor, single point]"
9,CN1C(=O)C(=Cc2ccccc2OCc2ccc(C(=O)O)cc2)C(=O)N(C)C1=O,"inconclusive: 35.5 µM [inhibitor, partial curve]"
10,N#CCC(=O)Nc1ccc(C(=O)OCC(=O)c2ccc3c(c2)OCO3)cc1,inactive
11,COc1ccc(NC(=O)CN2CCN(Cc3ccccc3Cl)S2(=O)=O)cc1Cl,inactive
12,Fc1ccc(-n2c(-c3cc(C4CC4)[nH]n3)n[nH]c2=S)cc1Cl,"inconclusive: 7.08 µM [inhibitor, partial curve]"
13,COc1ccc(N(C)S(=O)(=O)c2cccc(C(=O)OCC(=O)N(C)c3ccccc3)c2)cc1,inactive
14,CCn1c(CNS(=O)(=O)c2ccc(Br)cc2)n[nH]c1=S,"inconclusive: 35.5 µM [inhibitor, single point]"
15,N#Cc1c(N2CCCCC2)nc(N2CCCCC2)c2c1CCN(Cc1ccccc1)C2,"inconclusive: 31.6 µM [inhibitor, single point]"
16,COc1cc(/C=C2/C(=O)NC(=O)N(c3ccc(C)cc3)C2=O)cc(OC)c1OC,"inconclusive: 28.2 µM [inhibitor, partial curve, poor fit]"
17,Cc1cccc(NC(=O)C2CCN(c3cnccn3)CC2)c1,inactive
18,CS(=O)(=O)N(Cc1ccc(Cl)cc1)c1ccc(C(=O)N2CCN(c3ccccc3)CC2)cc1,inactive
19,Cc1c(-c2n[nH]c(=S)n2-c2ccc(Br)cc2)nnn1-c1ccc(Cl)cc1,"inconclusive: 3.55 µM [inhibitor, full curve, poor fit]"
20,Oc1ccc(NCc2ccc(OCc3ccccc3)cc2)cc1,"inconclusive: 3.55 µM [inhibitor, full curve]"
21,COc1ccc(S(=O)(=O)N(C(C)=O)c2ccc3oc(=O)sc3c2)cc1,"inconclusive: 31.6 µM [inhibitor, partial curve, poor fit]"
22,CCOC(=O)C1CCC(CN(Cc2ccc(OC)cc2)S(=O)(=O)c2ccc(F)c(C(=O)Nc3c(C)cccc3C)c2)CC1 (centres undefined),inactive

row,SMILES,Potency
1,CCC(=O)Nc1cc(=O)[nH]c2nc(-c3ccc(Cl)cc3)nn12,"inconclusive: 39.8 µM [inhibitor, partial curve, poor fit]"
2,CCCC(C)c1nnc(NC(=O)c2cc(C(=O)OC)cc([N+](=O)[O-])c2)s1 (centres undefined),"inconclusive: 5.62 µM [inhibitor, partial curve, poor fit]"
3,S=c1[nH]nc(-c2ccco2)n1/N=C/c1cccs1,"inconclusive: 28.2 µM [inhibitor, partial curve]"
4,O=c1c2ccccc2sn1-c1ccc(Cl)cc1,active: 31.6 µM
5,CC(=O)c1ccc(-n2c(-c3cc(-c4ccco4)[nH]n3)n[nH]c2=S)cc1,"inconclusive: 14.1 µM [inhibitor, partial curve]"
6,O=C(Nc1cccc(NC(=O)c2ccccc2)n1)c1ccccc1,inactive
7,CC1NC(=O)NC1CCCCC(=O)O (centres undefined),"inconclusive: 22.4 µM [inhibitor, single point]"
8,S=c1[nH]nc(COc2ccc3c(c2)OCO3)n1-c1ccccc1,"inconclusive: 6.31 µM [inhibitor, partial curve, poor fit]"
9,COCCn1c(C)cc(C(=O)COC(=O)c2ccc3ncsc3c2)c1C,"inconclusive: 39.8 µM [inhibitor, partial curve, poor fit]"
10,O=C1NC(=O)C(Sc2ccccc2[N+](=O)[O-])C(=O)N1,"inconclusive: 35.5 µM [inhibitor, partial curve, poor fit]"
11,CCOc1ccc(CNS(=O)(=O)c2ccc3c(c2)CCCN3C(C)=O)cc1,"inconclusive: 28.2 µM [inhibitor, single point]"
12,Cc1ccc(-c2nn[nH]n2)o1,"inconclusive: 50.1 µM [inhibitor, single point]"
13,NC(=O)c1sc2nccc(Nc3ccccc3)c2c1N,"inconclusive: 31.6 µM [inhibitor, single point]"
14,COc1ccc(C(CC(=O)Nc2ccc(Br)cn2)N2Cc3ccccc3C2=O)cc1 (centres undefined),inactive
15,N=C1CCC(=N)c2c1c(O)c1ccccc1c2O,"inconclusive: 25.1 µM [inhibitor, partial curve, poor fit]"
16,Cc1ccc(C2CC(=O)N3CN(Cc4ccco4)CSC3=C2C#N)cc1 (centres undefined),"inconclusive: 12.6 µM [inhibitor, partial curve, poor fit]"
17,CCOc1ccc(N/C=C/C(=O)c2ccccc2)cc1,"inconclusive: 25.1 µM [inhibitor, partial curve, poor fit]"
18,N#CC1(NC(=O)COc2ccccc2[N+](=O)[O-])CCCCC1,"inconclusive: 28.2 µM [inhibitor, partial curve, poor fit]"
19,CCN1C(=O)c2ccccc2S(=O)c2ccc(C(=O)NCc3ccc(Cl)cc3)cc21 (centres undefined),"inconclusive: 28.2 µM [inhibitor, single point]"
20,O=C(Cc1ccccc1)Nc1cccc(N2C(=O)C=CC2=O)c1,"inconclusive: 28.2 µM [inhibitor, partial curve, poor fit]"
21,CN=c1nc(-c2ccccc2)n(-c2ccccc2)s1,active: 7.94 µM
22,C=CCNC(=O)C(=O)NCC(c1ccc2c(c1)OCO2)N1CCN(c2ccc(F)cc2)CC1 (centres undefined),"inconclusive: 50.1 µM [inhibitor, single point]"
